# Reference: PubChem BioAssay AID1508642 (National Center for Advancing Translational Sciences (NCATS), 2021)
# Screen size: about 43,000 compounds; about 200 (0.47%) were called active. Inconclusive results (about 12%) are left out. Calls follow the shape of the dose curve; as a rule, active = well fitted cell-killing curve with a large enough effect; inconclusive = small, poorly fitted or top-dose-only effect, or effect the other way; inactive = flat fitted curve, though single readings scatter. This is one part of the list.
# Test: Cell viability qHTS assay in S16 Pmp22-F2sN cells; also: nearly all actives have a fitted effect of over 65% in size
# Conditions: S16 Pmp22-F2sN Schwann cells (luciferase reporters placed in the Pmp22 gene) viability, CellTiter-Glo, 24 h; series mostly up to 57.5 µM; activity change, negative = cytotoxicity: at the top concentration
# How it was run: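 CellTiter-Glo counter-screen, qHTS, 1536-well. Cells: S16(c9) Pmp22-F2sN, 500-1,000/well in DMEM + 10% FBS. Cpd 23 nL pin transfer, 24 h, 37C/5% CO2. Read: luminescence, CCD imager.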
# % is scaled to controls: 0 for no effect and ±100 for the full control effect.
row,SMILES,"activity change, negative = cytotoxicity"
1,COC(=O)c1ccc(NC(=O)N2CCc3c([nH]c4ccccc34)C2c2ccc(C)cc2)cc1 (configuration not stated),inactive: 5.78%
2,Cc1ccc(C)c(N2CCN(C(=O)C(C)n3nc(C)c4sc5ccccc5c4c3=O)CC2)c1 (configuration not stated),inactive: -2.27%
3,COc1cccc(CNC(=O)c2cc(-c3cccs3)nc3ccccc23)c1,inactive: 6.9%
4,COCCCNC(=O)CSc1nc2nc(C)c(Cc3ccccc3Cl)c(C)n2n1,inactive: 18.3%
5,COC(=O)c1ccc(NC(=O)CC2C(=O)N(c3ccccc3)C(=O)N2C2CCCC2)cc1 (configuration not stated),inactive: 3.98%
6,COc1ccc(CC(=O)N2CC(=O)Nc3ccc(Br)cc3C2c2ccc(F)cc2)cc1OC (configuration not stated),inactive: -23%
7,COc1cc2nc(NCc3ccccc3Cl)n3nc(-c4cccnc4)nc3c2cc1OC,inactive: 14.7%
8,COc1ccc(Cn2c(C(=O)O)c(CNC3CCC(C)CC3)c3ccc(C)cc32)cc1 (configuration not stated),inactive: -29.1%
9,COc1cc(C(=O)N2CCC(c3ccncc3)CC2)cc(OC)c1OC,inactive: -12.2%
10,Cc1cccc(-n2c(SCC(=O)Nc3ccccc3Cl)nc3n[nH]c(C)c3c2=N)c1,inactive: -23.8%
11,COc1cccc(C(=O)Nc2ccc3nc(SCc4ccc(C)cc4)sc3c2)c1,inactive: 4.69%
12,Cn1nc(-c2ccccc2)c(-c2ccccc2)c(C(=O)Nc2ccc(S(N)(=O)=O)cc2)c1=O,inactive: -1.37%
13,COc1ccc(NC(=O)c2c(NCc3cccc(OC)c3)sc3c2CCC3)cc1,inactive: -0.328%
14,Cc1cccc(Nc2ncnc3c2cnn3C)c1C,inactive: -3.2%
15,COc1ccc(C)c2sc(N(Cc3cccnc3)C(=O)COc3ccccc3)nc12,inactive: -3.7%
16,Cc1ccc(C)c(N2CCN(C(=O)c3cc(S(=O)(=O)N4CCCC4)c[nH]3)CC2)c1,inactive: 4.98%
17,CCCOc1ccc(C(=O)Nc2ccc(NC(=O)c3cccc(Cl)c3)cc2)cc1,inactive: 4.35%
18,COc1cccc(Nc2cc(-c3ccccc3)nc(C)n2)c1,inactive: -28.3%
19,CN(C)c1ccc(-c2nc(-c3ccncc3)no2)cc1[N+](=O)[O-],inactive: -5.2%
20,Cc1ccc2c(c1)N(C(=O)N1CCC(C(=O)NC3CCCCCC3)CC1)CCO2,inactive: 5.39%
21,Cc1ccc(-n2ncc3c(N4CCN(C)CC4)ncnc32)cc1,inactive: 13.2%
22,CCCN(CCC)C(=O)Cn1c(=O)n(-c2ccc(C)cc2)c(=O)c2ccc(C(=O)NCc3ccccc3Cl)cc21,inactive: 12%
23,CCc1sc(Nc2ccc(C)cc2Br)nc1-c1cc2cccc(OC)c2oc1=O,inactive: -3.49%
24,CCOC(=O)CSc1nc2c(sc3ccccc32)c(=O)n1Cc1ccc(C)cc1,inactive: 26.4%

row,SMILES,"activity change, negative = cytotoxicity"
1,CC(=O)NCCNc1nc2c(-c3ccc(C)cc3)nnn2c2ccccc12,inactive: 24%
2,CCC1CN(C(=O)N2CCC(C(=O)NCCc3ccc(C)cc3)CC2)c2ccccc2O1 (configuration not stated),inactive: -6.06%
3,Cc1oc(-c2ccccc2)nc1CSc1nnc(C)n2c1cc1sccc12,inactive: 5.56%
4,CCOCCCNC(=O)CCC(=O)NNc1nc2ccccc2c2nc(-c3ccccc3)nn12,inactive: -7.73%
5,O=C(CCc1nnc2n(Cc3ccccc3Cl)c(=O)c3ccccc3n12)Nc1ccc(F)c(F)c1,inactive: 7.89%
6,O=C(NCc1cccc(Br)c1)C1CCN(C(=O)c2sccc2-n2cccc2)CC1,inactive: -18.3%
7,Cc1ccc(-n2nc(CO)c(C(=O)NCC(c3ccccc3)c3ccccc3)n2)cc1,inactive: -4.64%
8,Cc1ccc(-c2cn3c(n2)sc2cc(C(=O)NCc4cccs4)ccc23)cc1,inactive: 8.49%
9,CC(=O)N1c2ccccc2CC1C(=O)N1CCN(c2cccc(Cl)c2)CC1 (configuration not stated),inactive: 13.9%
10,O=C(CC1C(=O)N(c2ccc(F)cc2)C(=O)N1Cc1ccc2c(c1)OCO2)Nc1ccc(F)cc1 (configuration not stated),inactive: 7.75%
11,COc1cccc(-n2cc(C(=O)Oc3cccc(C(F)(F)F)c3)c3ccccc3c2=O)c1,inactive: 4.39%
12,Cc1ccc(O)c(NC(=O)c2noc3c2CCCCC3)c1,inactive: -4.9%
13,CCOC(=O)c1cnc2c(C)cccc2c1NCCc1ccc(OC)c(OC)c1,inactive: -9.42%
14,Nc1c(-c2nc(-c3cccs3)no2)nnn1-c1cccc(F)c1,inactive: 7.05%
15,Cc1ccc(C)c(CN2C(=O)c3ccccc3S(=O)(=O)c3ccc(C(=O)N4CCCC4)cc32)c1,inactive: -4.81%
16,CCN(c1ncnc2c1cnn2-c1cc(Cl)ccc1C)C1CCCCC1,inactive: -7.99%
17,CCOc1ccc(OCC)c(NC(=O)C(NS(=O)(=O)c2ccc(Br)s2)c2ccccc2)c1 (configuration not stated),inactive: 7.33%
18,COc1cccc(CNC(=O)CN2C(=O)CCCc3ccccc32)c1OC,inactive: 11.5%
19,O=C(NCc1ccco1)C1CCN(C(=O)N2CCOc3ccc(Cl)cc32)CC1,inactive: -13.5%
20,O=S(=O)(NCCc1csc2nc(-c3ccc(Cl)cc3)nn12)c1ccc(Oc2ccccc2)cc1,inactive: -5.14%
21,CC(=O)c1cccc(NC(=O)CSc2nnc3ccc(-c4ccc(C)cc4)nn23)c1,inactive: 3.04%
22,Cc1ccccc1-c1nc(C(N)=O)c2c(n1)n(-c1ccc3c(c1)OCO3)c(=O)n2C,inactive: -3.48%
23,Cc1ccc(C)c(Cn2c(=O)n(Cc3ccc(C(=O)NC4CCN(Cc5ccccc5)CC4)cc3)c(=O)c3ccccc32)c1,inactive: 18.9%
